This note sets out measurements from patent US20120148607A1.

Chains of the proteins cited; added tags and fusions are not shown. Lines headed by an entry give the natural chain unless they say otherwise; changes in a name come on top. Residues count along the entry.
UniProt P08581: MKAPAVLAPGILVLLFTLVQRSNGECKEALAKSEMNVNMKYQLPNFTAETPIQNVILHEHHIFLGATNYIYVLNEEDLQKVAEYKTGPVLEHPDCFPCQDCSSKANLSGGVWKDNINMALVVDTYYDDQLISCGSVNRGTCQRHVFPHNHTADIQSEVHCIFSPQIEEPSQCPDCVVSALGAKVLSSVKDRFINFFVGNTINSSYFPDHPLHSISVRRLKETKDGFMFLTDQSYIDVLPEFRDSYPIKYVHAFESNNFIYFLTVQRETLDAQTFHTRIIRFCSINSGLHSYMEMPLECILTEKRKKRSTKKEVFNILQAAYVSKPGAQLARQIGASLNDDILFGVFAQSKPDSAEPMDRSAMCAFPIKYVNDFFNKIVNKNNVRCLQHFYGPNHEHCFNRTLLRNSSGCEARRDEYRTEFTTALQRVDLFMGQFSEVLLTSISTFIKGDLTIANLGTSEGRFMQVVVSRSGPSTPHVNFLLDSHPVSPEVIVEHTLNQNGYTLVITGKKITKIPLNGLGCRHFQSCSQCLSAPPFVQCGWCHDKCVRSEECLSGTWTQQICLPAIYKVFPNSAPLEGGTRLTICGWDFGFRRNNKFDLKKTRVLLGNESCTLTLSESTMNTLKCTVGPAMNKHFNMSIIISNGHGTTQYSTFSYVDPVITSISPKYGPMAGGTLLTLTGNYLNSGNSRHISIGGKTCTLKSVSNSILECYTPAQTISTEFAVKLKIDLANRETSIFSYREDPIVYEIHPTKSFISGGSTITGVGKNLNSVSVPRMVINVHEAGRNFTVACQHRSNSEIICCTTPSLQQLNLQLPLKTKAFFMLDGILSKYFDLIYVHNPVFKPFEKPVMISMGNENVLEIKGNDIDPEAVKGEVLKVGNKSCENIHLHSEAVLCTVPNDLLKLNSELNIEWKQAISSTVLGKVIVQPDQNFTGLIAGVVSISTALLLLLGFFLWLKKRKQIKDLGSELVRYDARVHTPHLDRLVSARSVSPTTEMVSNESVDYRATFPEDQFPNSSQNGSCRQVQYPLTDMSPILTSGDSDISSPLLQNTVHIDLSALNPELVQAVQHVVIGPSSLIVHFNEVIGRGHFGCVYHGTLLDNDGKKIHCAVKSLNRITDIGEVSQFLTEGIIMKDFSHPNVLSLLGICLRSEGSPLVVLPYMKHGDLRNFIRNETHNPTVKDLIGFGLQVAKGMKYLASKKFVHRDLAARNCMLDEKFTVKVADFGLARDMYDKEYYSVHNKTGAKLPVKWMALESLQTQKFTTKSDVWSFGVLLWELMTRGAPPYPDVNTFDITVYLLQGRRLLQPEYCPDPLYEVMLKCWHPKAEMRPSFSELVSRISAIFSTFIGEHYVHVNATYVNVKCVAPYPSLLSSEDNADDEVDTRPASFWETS
HMet (human c-Met of Table 16): residues 25-932 of P08581
c-Met SEMA-PSI-IPT1-2 ectodomain: residues 25-741 of P08581
c-Met SEMA-PSI ectodomain: residues 25-562 of P08581
c-Met SEMA ectodomain: residues 27-515 of P08581
UniProt P16056, residues 25-929: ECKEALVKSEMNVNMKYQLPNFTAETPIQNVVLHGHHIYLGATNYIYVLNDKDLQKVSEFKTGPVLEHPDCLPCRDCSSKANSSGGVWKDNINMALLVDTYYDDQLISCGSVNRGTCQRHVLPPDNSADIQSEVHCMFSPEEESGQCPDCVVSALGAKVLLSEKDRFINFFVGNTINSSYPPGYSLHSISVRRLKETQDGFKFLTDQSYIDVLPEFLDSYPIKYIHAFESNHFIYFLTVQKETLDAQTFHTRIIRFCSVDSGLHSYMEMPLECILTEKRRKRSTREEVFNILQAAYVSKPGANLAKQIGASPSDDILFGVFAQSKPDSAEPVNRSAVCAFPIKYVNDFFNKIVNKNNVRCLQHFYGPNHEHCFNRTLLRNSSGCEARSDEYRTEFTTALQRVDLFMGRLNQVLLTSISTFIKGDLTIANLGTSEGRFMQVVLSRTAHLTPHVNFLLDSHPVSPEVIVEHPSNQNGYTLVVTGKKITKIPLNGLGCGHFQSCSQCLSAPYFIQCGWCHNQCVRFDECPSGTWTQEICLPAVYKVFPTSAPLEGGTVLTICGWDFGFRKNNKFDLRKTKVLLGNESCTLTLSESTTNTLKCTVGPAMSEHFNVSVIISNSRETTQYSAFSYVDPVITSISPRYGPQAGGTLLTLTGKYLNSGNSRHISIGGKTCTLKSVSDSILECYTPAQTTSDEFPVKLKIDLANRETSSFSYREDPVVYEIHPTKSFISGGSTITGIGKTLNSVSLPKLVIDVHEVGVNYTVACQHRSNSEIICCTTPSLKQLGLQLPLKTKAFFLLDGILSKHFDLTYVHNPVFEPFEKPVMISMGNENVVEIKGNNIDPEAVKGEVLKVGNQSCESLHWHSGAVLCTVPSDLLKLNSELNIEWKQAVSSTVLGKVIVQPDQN

Assay [1] deals with c-Met SEMA-PSI-IPT1-2 ectodomain (human) (UniProt P08581). The assay is described as follows: ELISA: c-Met ectodomain coated at 1 µg/ml on maxisorb plate; mAb in three-fold dilutions from 1 µg/ml, 1 h RT; HRP-conjugated Protein A, TMB, OD 450.
The target of assay [2] is c-Met SEMA ectodomain (human) (UniProt P08581). The description is as above.
Assay [3] deals with c-Met SEMA-PSI ectodomain (human) (UniProt P08581). The assay is described as above.
Assay [4] addresses HMet (human c-Met of Table 16) (human) (UniProt P08581). Nature of the assay: SPR, 36C4 coupled on CM-5 chip (3000 RU), c-Met construct 10 µg/ml injected. (Surface plasmon resonance follows binding to a sensor surface in real time, without labels.)
Assay [5] concerns the target mouse c-Met (R&D systems cat no: 527-ME) (mouse) (UniProt P16056). Nature of the assay: ELISA, mAb (2 µg/ml) immobilised, mouse c-Met added, anti-His detection. (In general: In an ELISA, binding on a coated surface is turned into a signal by an enzyme label.)
Assay [6] concerns the target c-Met SEMA ectodomain (human) (UniProt P08581). The assay is described as follows: ELISA of mAb on immobilised c-Met ectodomains.
For assay [7], the target named is c-Met SEMA-PSI-IPT1-2 ectodomain (human) (UniProt P08581). The assay is described as follows: ELISA of mAb on immobilised c-Met ectodomains.

No constants are given. Whether binding was seen depends on the method and setting. Some entries that bind do so weakly or less than the wild type.

B1: 36C4 mAb (antibody, V domains shown)
VH: QVQLVESGPGLVKPSQTLSLTCAVSGGSITTNYYYWSWIRQSPGKGLEWMGVIAYDGSTDYSPSLKSRTSISRDTSKNQFSLQLSSVTPEDTAVYYCARDVRVIATGWATANALDAWGQGTLVTVSS
VL: QSVLTQPPSVSGSPGKTVTISCAGTSSDVGYGNYVSWYQQLPGTAPKLLIFAVSYRASGIPDRFSGSKSGNTAFLTISGLQSEDEADYYCASYRSSNNAAVFGGGTHLTVL
In the case of B1, the binding result is on record as “binds” in assay [1]; “binds” in assay [2]; “binds” in assay [3]; “binds” in assay [4]; “no binding (tested: 100 ng/ml mouse c-Met)” in assay [5]; “binds” in assay [6].

B2: 40B8 mAb (antibody, V domains shown)
VH: EVQLVQPGAELRNPGASVKVSCKASGYTFTNYVIDWVRQAPGQGLEWMGRIDPENGGTRYAQKFQGRVTFTADTSTSTAYVELSNLRSEDTAVYYCARLEDYELAYDYWGQGTQVTVSS
VL: DIVMTQTPSSVTASAGEKVTINCKSSQSVLLSSNQKNYLAWYQQRLGQSPRLLIYWASTRESGVPDRFSGSGSTTDFTLTISSFQPEDAAVYYCQQGVSFPLTFGQGTKVELK
In the case of B2, the binding result in assay [1] is “binds”; in assay [5], “no binding (tested: 100 ng/ml mouse c-Met)”; in assay [7], “binds”.

B3: 12G4 mAb (antibody, V domains shown)
VH: QLQLVESGGGMAQPGGSLKLSCAASGFTFDDYAMTWVRQAPGKGLEWLSTISWNDINTYYAESMKDRFTISRDNAKNTLYLQMNSLESEDTAVYYCAKRRDNYYGTSGEYDYWGQGTQVTVSS
VL: QSALTQPPSVSGTLGKTVTISCAGTSSDIGNYNYVSWYQQLPGTAPKLLIYEVNKRPSGIPDRFSGSKSGNTASLSISGLQSEDEADYYCASYRSSNNVVFGGGTKLTVL
Take B3: the results for the binding entry in assay [5] and in assay [7] were “no binding (tested: 100 ng/ml mouse c-Met)” and “binds”, respectively.

B4: 13E6 mAb (antibody, V domains shown)
VH: QVQLQESGGDLVQPGGSLRLSCAASGFTFDDYVMNWVRQAPGKGLEWISAINWNGGSTYYAESMKGRFTISRDNAKNTLYLQMYSLQSDDTAVYYCVKDTVVSGNGYWGQGTQVTVSS
VL: QSVLTQPPSVSGTLGKTVTISCAGTSSDIGDYNYVSWYQQLPGTAPKLLIYDVNKRASGIPDRFSGSKSGNTASLSISGLQSEDEADYYCASYRSRNDYAFGGGTKLTVL
In the case of B4, the binding entry in assay [5] is recorded as “no binding (tested: 100 ng/ml mouse c-Met)”.

B5: 38H10 mAb (antibody, V domains shown)
VH: EVQLVQPGVELRNPGASVKVSCKASGYIFTMNSIDWVRQAPGQGLEWMGRIDPEDGGTKYAQKFQGRVTFTADTSTSTAYVELNSLRSEDTAVYYCARVDDYYLGYDYWGQGTQVTVSS
VL: EIVMTQSPSSVTASAGEKVTINCKSSQSVLWRSNQKNYLAWYQQRLGQSPRLLISWASIRESGVPDRFSGSGSTTDFTLTISSFQPEDAAVYYCQQGYSFPYTFGSGTRLEIK
For the molecule B5, the binding result in assay [5] is given as “no binding (tested: 100 ng/ml mouse c-Met)”; in assay [7] it was “binds”.

B6: 34H7 mAb (antibody, V domains shown)
VH: ELQLVESGGALVQPGGSLRLSCVESGFTFSSYAMSWVRQAPGKGLEWVSGIYKGGGPKYANSVKGRFTISRDNAKNTLYLQMNSLKPEDTAVYYCAKSGYGSSLGDFGSWGQGTQVTVSS
VL: QAGLTQLSSMSGSPGQTVTITCTGSSSNIGGGYYLSWYQHLPGTAPKLLIYSNINRASGVPDRFSGSTSGISASLTITGLQAEDEADYYCSSWDDSVSGPVFGGGTSLTVL
With B6, in assay [6], the binding result is “binds”.

B7: 20F1 mAb (antibody, V domains shown)
VH: EVQVQESGPGLVKPSQTLSLTCTVSGGSMTGNYYAWSWIRQPPGKGLEWMGVIAYDGSTYYSPSLKSRTSISRDTSKNQFSLQLSSVSPEDTAVYYCARGPGWYSGSRNDYWGQGTQVTVSS
VL: QSALTQPPSVSGSPGKTVTISCTGTNSDVGYGNYVSWYQQLPGMAPKLLIYDVNRRASGIADRFSGSKSGNTASLTISGLQSEDEGDYHCASYRSANNAVFGGGTHLFVL
As for B7, the binding entry in assay [6] was “binds”.

B8: 20A11 mAb (antibody, V domains shown)
VH: QVQLVESGGGLVQPGGSLRLSCAASGFTFDDYAMSWVRQAPGKGLEWVSAISWNGSSTYYAESMKGRFTISRDNAKNTLYLQMNSLKSEDTAVYYCAKDLIGSHDYWGQGTQVTVSS
VL: QAVLTQPPSVSGTLGKTLTISCAGTSSDVGYGNYVSWYQQLPGTAPKLLIYAVSTRASGIPDRFSGSKSGNTASLTISGLQSEDEADYYCASYRSSNNYAFGAGTKLTVL
In the case of B8, the binding entry in assay [5] is listed as “no binding (tested: 100 ng/ml mouse c-Met)”.
